# Results taken from PubChem BioAssay (Tox21).
# Inconclusive results, whose numbers are uncertain, are shown with a selection of clear calls. For part of these data: Potencies of inconclusive entries are doubtful fits and often do not repeat. Active and inactive are the calls of the source. Unless noted, calls follow the shape of the dose curve; as a rule, active = well fitted curve in the direction sought with a large enough effect in the repeat runs; inconclusive = weak or mixed curves; inactive = no such curve, though single readings can be large; an effect the other way counts as inactive or inconclusive.
# What was measured:
# [1] = qHTS assay to identify small molecule antagonists of the TGF-beta/Smad signaling pathway (AID 1346924; active = well fitted inhibition curve with a large enough effect in the signal ratio in the repeat runs, not every such curve was filed as active; inconclusive = weak or mixed curves; the % refers to the signal ratio); conditions: SBE-bla HEK293T, TGF-beta/Smad reporter, beta-lactamase ratio; activity, negative = inhibition: at 76.8 µM (top of the series) unless noted
# Procedure, shortened: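 Read-out was FRET-substrate fluorescence (405 nm excitation; 460 and 530 nm emission) after 2 h at room temperature. Before that, cells carrying a Smad-binding-element beta-lactamase reporter in HEK 293T had been stimulated 5 h at 37 C with TGF-beta1 (0.25 ng/mL addition solution) in the presence of test compound.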
# [2] = Human pregnane X receptor (PXR) small molecule agonists, qHTS cell viability counter screen (AID 1346977); also: nearly all actives have a fitted effect of over 50% in size
# Procedure, shortened: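 Readout is CellTiter-Fluor fluorescence from PXR-Luc HepG2 cells. Plated cells rested 5hr, then were treated with compounds for 24hr at 37C and 5% CO2, with reagent present during the last hour.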
# [3] = Caspase-3/7 induction in HepG2 cells by small molecules, qHTS cell viability counter screen (AID 1346981); also: nearly all actives have a fitted effect of over 30% in size
# Procedure, shortened: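 In this quantitative HTS counter screen, compounds delivered in DMSO were left on unmodified HepG2 cells for 16 hr at 37 C. Viability was then determined fluorometrically with CellTiter-Fluor, in parallel with caspase-3/7 induction in the same wells.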
# [4] = molecular target: Cytochrome P450 2C9 (Homo sapiens) (UniProt P11712); test: Cytochrome P450 Family 2 Subfamily C Member 9 (CYP2C9) small molecule antagonists: luciferase reporter qHTS assay (AID 1671198); also: nearly all actives have a fitted effect of over 50% in size
# UniProt P11712, sequence (P11712 whole entry, looked up): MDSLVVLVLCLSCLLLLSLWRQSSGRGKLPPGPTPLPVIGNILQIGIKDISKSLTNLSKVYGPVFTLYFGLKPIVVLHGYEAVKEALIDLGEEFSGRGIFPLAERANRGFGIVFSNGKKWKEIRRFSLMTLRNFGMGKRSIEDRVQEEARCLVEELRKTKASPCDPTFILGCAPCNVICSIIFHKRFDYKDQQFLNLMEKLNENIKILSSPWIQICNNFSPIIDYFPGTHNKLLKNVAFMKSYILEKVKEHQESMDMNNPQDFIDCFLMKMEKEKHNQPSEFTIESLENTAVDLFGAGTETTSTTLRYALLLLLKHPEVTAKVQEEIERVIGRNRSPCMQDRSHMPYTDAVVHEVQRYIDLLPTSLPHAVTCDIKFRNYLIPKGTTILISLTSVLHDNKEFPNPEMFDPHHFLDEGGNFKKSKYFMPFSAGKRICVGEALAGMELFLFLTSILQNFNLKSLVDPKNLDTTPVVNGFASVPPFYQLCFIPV
# Procedure, shortened: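 CYP2C9 activity was measured with a P450-Glo proluciferin substrate. Enzyme–substrate mix was held with compound for 10 min at room temperature, then NADPH regeneration solution was added for 1 h at 37C. Luciferin product was read as luminescence.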
# [5] = molecular target: Voltage-gated inwardly rectifying potassium channel KCNH2 (Homo sapiens) (UniProt Q12809); test: Human Ether-a-go-go-Related Gene (hERG) channel small molecule antagonists: fluorescence cell-based qHTS assay (AID 1671200); also: nearly all actives have a fitted effect of over 50% in size
# UniProt Q12809, sequence (Q12809 whole entry, looked up): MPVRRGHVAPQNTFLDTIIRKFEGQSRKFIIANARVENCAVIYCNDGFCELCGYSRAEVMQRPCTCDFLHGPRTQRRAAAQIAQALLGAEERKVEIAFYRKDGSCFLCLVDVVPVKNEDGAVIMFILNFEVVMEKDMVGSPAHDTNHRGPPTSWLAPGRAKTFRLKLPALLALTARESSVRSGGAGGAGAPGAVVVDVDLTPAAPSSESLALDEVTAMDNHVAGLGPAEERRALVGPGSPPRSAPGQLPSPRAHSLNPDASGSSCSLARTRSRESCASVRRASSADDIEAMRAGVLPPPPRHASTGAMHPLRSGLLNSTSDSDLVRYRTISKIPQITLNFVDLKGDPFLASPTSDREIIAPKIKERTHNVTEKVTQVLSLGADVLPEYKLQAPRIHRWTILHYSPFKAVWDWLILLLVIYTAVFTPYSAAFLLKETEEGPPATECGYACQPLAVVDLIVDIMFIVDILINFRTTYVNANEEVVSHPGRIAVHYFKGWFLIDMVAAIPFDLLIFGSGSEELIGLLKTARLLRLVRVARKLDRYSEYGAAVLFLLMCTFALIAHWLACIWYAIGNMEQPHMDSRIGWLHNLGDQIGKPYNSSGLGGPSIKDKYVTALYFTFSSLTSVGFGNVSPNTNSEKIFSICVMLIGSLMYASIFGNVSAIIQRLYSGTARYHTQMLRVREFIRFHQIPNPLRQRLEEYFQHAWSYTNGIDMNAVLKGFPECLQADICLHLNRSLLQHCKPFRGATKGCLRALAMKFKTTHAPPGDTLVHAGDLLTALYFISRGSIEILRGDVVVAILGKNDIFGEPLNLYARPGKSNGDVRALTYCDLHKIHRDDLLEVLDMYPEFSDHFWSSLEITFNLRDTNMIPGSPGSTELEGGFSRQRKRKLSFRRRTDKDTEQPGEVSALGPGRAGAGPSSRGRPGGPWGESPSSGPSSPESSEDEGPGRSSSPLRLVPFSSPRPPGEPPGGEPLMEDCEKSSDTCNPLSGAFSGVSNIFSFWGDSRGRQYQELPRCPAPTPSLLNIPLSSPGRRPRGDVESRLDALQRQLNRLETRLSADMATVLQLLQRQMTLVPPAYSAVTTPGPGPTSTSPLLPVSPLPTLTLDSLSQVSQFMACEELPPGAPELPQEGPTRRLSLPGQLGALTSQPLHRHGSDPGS
# Procedure, shortened: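 Measured: Tl+ flux via fluorescence (480/540 nm) in hERG-expressing U2OS cells after 1 h dye loading at room temperature.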
# [6] = Caspase-3/7 induction in CHO-K1 cells by small molecules, qHTS cell viability counter screen (AID 1346979); also: nearly all actives have a fitted effect of over 35% in size
# Procedure, shortened: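 To flag cytotoxic compounds, treated CHO-K1 wild-type cells were given CellTiter-Fluor at 16hr and read fluorescently after 1hr at 37C; the caspase-3/7 luminescence was measured in these same wells.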
# [7] = molecular target: Cytochrome P450 3A4 (Homo sapiens) (UniProt P08684); test: Cytochrome P450 Family 3 Subfamily A Member 4 (CYP3A4) small molecule antagonists: luciferase reporter qHTS assay (AID 1671201); also: nearly all actives have a fitted effect of over 50% in size
# UniProt P08684, sequence (P08684 whole entry, looked up): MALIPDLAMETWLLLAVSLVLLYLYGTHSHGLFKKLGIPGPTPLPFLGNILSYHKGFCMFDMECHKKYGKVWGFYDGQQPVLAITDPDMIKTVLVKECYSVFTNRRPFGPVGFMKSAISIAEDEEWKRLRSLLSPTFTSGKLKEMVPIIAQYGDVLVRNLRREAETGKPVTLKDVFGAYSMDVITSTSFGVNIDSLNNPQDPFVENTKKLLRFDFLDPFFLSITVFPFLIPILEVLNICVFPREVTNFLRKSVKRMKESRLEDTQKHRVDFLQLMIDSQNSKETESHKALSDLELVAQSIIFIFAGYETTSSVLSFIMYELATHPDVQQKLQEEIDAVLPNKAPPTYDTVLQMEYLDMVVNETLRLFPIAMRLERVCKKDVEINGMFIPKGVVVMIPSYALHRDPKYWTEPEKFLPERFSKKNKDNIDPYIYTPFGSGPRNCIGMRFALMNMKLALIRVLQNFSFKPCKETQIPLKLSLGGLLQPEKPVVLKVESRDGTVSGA
# Procedure, shortened: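 Setup: enzyme-substrate mix, compound pin transfer, 10 min RT. Reaction: NADPH regeneration solution, 1 h RT. Readout: detection reagent stops turnover, luminescence measured after 20 min, expressed in relative luminescence units.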
# [8] = molecular target: Cytochrome P450 2D6 (Homo sapiens) (UniProt P10635); test: Cytochrome P450 Family 2 Subfamily D Member 6 (CYP2D6) small molecule antagonists: luciferase reporter qHTS assay (AID 1671196); also: nearly all actives have a fitted effect of over 50% in size
# UniProt P10635, sequence (P10635 whole entry, looked up): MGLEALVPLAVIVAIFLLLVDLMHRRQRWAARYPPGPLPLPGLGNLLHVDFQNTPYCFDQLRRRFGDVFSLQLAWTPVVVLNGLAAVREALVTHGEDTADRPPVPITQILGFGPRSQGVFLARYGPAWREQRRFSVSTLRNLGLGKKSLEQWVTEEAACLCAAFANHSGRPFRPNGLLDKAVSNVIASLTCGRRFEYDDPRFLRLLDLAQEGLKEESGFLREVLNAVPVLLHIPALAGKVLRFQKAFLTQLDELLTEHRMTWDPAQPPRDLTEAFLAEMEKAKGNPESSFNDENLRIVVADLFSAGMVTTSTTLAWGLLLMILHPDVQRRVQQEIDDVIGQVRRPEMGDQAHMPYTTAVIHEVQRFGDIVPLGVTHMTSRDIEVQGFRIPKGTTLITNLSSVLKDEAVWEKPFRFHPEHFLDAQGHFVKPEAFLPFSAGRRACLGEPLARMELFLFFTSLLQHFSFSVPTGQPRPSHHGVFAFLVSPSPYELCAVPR
# Procedure, shortened: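 Test chemicals meet CYP2D6 plus proluciferin substrate (10 min, RT); NADPH regenerating solution then drives turnover for 1 h. Detection reagent halts the reaction; luminescence measured after 20 min.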
# [9] = molecular target: Cytochrome P450 2C19 (Homo sapiens) (UniProt P33261); test: Cytochrome P450 Family 2 Subfamily C Member 19 (CYP2C19) small molecule antagonists: luciferase reporter qHTS assay (AID 1671197); also: nearly all actives have a fitted effect of over 65% in size
# UniProt P33261, sequence (P33261 whole entry, looked up): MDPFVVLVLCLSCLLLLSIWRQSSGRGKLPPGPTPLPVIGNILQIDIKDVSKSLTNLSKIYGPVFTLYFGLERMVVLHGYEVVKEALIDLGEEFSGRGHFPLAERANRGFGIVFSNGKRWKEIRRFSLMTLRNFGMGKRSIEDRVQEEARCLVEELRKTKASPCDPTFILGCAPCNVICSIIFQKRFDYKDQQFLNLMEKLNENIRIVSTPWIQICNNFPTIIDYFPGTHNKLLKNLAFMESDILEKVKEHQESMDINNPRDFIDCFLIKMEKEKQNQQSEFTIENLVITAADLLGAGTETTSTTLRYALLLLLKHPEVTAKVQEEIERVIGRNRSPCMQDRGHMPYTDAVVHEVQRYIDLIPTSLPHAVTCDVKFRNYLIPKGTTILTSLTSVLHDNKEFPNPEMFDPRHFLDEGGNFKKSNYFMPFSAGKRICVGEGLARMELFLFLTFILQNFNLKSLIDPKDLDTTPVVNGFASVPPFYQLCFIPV
# Procedure, shortened: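 Compounds were tested on CYP2C19 activity via proluciferin conversion to luciferin. The 37C, 1 h reaction followed NADPH addition; detection reagent stopped it.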
# [10] = molecular target: Cytochrome P450 1A2 (Homo sapiens) (UniProt P05177); test: Cytochrome P450 Family 1 Subfamily A Member 2 (CYP1A2) small molecule antagonists: luciferase reporter qHTS assay (AID 1671199); also: nearly all actives have a fitted effect of over 50% in size
# UniProt P05177, sequence (P05177 whole entry, looked up): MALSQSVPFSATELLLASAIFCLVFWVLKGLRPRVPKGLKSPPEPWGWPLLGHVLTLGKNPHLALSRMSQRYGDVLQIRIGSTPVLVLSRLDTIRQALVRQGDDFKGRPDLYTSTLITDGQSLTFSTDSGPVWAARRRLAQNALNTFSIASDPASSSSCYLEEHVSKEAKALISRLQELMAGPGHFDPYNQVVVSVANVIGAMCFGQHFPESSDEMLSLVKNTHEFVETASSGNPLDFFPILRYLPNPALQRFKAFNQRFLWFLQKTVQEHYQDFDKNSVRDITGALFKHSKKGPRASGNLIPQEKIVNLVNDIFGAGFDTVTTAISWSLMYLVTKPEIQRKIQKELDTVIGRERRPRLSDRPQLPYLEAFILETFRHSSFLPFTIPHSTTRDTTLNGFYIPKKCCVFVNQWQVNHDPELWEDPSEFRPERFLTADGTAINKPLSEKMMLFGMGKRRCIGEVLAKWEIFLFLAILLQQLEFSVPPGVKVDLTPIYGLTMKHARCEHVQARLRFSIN
# Procedure, shortened: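 Steps: enzyme-substrate mix dispensed; test compounds and furafylline control pinned in; 10 min room temperature; NADPH regeneration solution added, 1 h; reaction stopped with luciferin detection reagent; luminescence read after 20 min.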
# [11] = molecular target: Nuclear receptor subfamily 1 group I member 2 (Homo sapiens) (UniProt O75469); test: Human pregnane X receptor (PXR) small molecule agonists, qHTS assay (AID 1346982); also: nearly all actives have a fitted effect of over 35% in size; as to activation: % is scaled to controls: 0 for no effect and ±100 for the full control effect
# Procedure, shortened: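 Reporter HepG2 cells expressing PXR-Luc are cultured in charcoal-stripped FBS (5%), treated with compounds for 24 hr at 37 C, and assayed by ONE-Glo luminescence after 30 min at room temperature.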
# [12] = molecular target: Nuclear receptor subfamily 1 group I member 2 (Homo sapiens) (UniProt O75469); test: CYP3A4 induction through human pregnane X receptor (PXR) by small molecules, qHTS assay (AID 1346984); also: nearly all actives have a fitted effect of over 40% in size
# Procedure, shortened: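 Induction measured in HepG2-based DPX-2 cells co-expressing human PXR and a CYP3A4 promoter-driven luciferase. After a 24-hour compound exposure, cells received CYP3A4 luciferin substrate at 3uM final for 3 hours, and light output was then recorded.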
# [13] = Caspase-3/7 induction in HepG2 cells by small molecules, qHTS assay (AID 1346978); also: nearly all actives have a fitted effect of over 15% in size
# Procedure, shortened: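 Wild-type HepG2 cells (2,000/well) were settled 5 h at 37 C, 5% CO2, then exposed to compounds in DMSO for 17 h. Caspase-3/7 activity was read by luminescence 30 min after adding Caspase-Glo 3/7 reagent at room temperature.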
# [14] = molecular target: Nuclear receptor subfamily 1 group I member 2 (Homo sapiens) (UniProt O75469); test: Human pregnane X receptor (PXR) activation by small molecules, qHTS assay (AID 1346985); also: nearly all actives have a fitted effect of over 40% in size
# Procedure, shortened: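 DPX-2 cells (HepG2 co-transfected with a PXR response element and a CYP3A4-promoter luciferase construct) were seeded at 2,000 per well, rested 5 hr at 37C, then exposed to DMSO-dissolved compounds for 24 hr. Activation was read as luciferase luminescence.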
# Potency is read from the fitted curve at half-maximal effect; tags tell the direction and shape of the fitted curve or compound fluorescence and quenching.
compound,measurement,setting,value
CC(C)(c1ccc(Oc2ccc(N)cc2)cc1)c1ccc(Oc2ccc(N)cc2)cc1,"activity, negative = inhibition",[1],inconclusive: -1.44%
same,Potency,[2],inconclusive: 61.1 µM [cytotoxic]
same,Potency,[3],"inconclusive: 68.6 µM [cytotoxic, single point]"
same,Potency,[4],active: 2.52 µM
COCCCCCCCCOCCC[Si](C)(O[Si](C)(C)C)O[Si](C)(C)C,"activity, negative = inhibition",[1],inconclusive: -19.1%
same,Potency,[2],active: 30.6 µM
same,Potency,[3],"inconclusive: 27.3 µM [cytotoxic, full curve]"
same,Potency,[5],"inconclusive: 54.9 µM [inhibitor, single point]"
Cn1ccnc1,"activity, negative = inhibition",[1],inconclusive: 4.16%
same,Potency,[2],inactive
same,Potency,[3],inactive
same,Potency,[4],inactive
O=C1Nc2ccc([N+](=O)[O-])cc2C1=O,"activity, negative = inhibition",[1],inconclusive: -0.126%
same,Potency,[2],"inconclusive: 30.6 µM [cytotoxic, partial curve]"
same,Potency,[6],"inconclusive: 68.5 µM [cytotoxic, single point]"
same,Potency,[3],"inconclusive: 68.5 µM [cytotoxic, single point]"
same,Potency,[7],"inconclusive: 63.2 µM [inhibitor, partial curve]"
C/C=C/C=C/CCCCCCCO,Potency,[1],"inconclusive: 54.9 µM [rising, partial curve]"
same,Potency,[2],"inconclusive: 68.6 µM [cytotoxic, partial curve, poor fit]"
same,Potency,[8],"inconclusive: 63.3 µM [inhibitor, partial curve]"
same,Potency,[9],active: 25.2 µM
same,Potency,[10],"inconclusive: 63.3 µM [inhibitor, partial curve, poor fit]"
same,Potency,[5],"inconclusive: 21.9 µM [inhibitor, partial curve]"
O=c1[nH]c2ccc(S(=O)CCN3CCC(Cc4ccc(F)cc4)CC3)cc2o1 (stereo not given),Potency,[1],"inconclusive: 6.16 µM [rising, full curve, poor fit]"
same,Potency,[2],"inconclusive: 68.6 µM [cytotoxic, single point]"
same,Potency,[6],active: 54.5 µM
same,Potency,[10],inactive
same,Potency,[7],"inconclusive: 17.8 µM [inhibitor, full curve]"
COc1ccc(N=Nc2cc(C)c(N=Nc3ccc(S(=O)(=O)O)cc3)cc2OC)cc1,"activity, negative = inhibition",[1],inconclusive: 10.9%
same,Potency,[2],"inconclusive: 68.6 µM [cytotoxic, single point]"
same,Potency,[6],active: 54.5 µM
same,Potency,[11],inactive
same,Potency,[9],inactive
same,Potency,[10],"inconclusive: 31.7 µM [inhibitor, partial curve]"
NC(=O)Cn1c(=O)cc(CCN2CCN(c3nccc4sccc34)CC2)c2ccc(F)cc21,Potency,[1],"inconclusive: 54.9 µM [rising, partial curve, poor fit]"
same,Potency,[2],"inconclusive: 68.6 µM [cytotoxic, single point]"
same,Potency,[6],inconclusive: 61.1 µM [cytotoxic]
same,Potency,[3],"inconclusive: 68.6 µM [cytotoxic, single point]"
same,Potency,[9],"inconclusive: 89.4 µM [inhibitor, single point]"
same,Potency,[4],active: 63.3 µM
CN1CCN(C2=Nc3ccccc3Oc3ccc(Cl)cc32)CC1,Potency,[1],inconclusive: 12 µM [fluorescent]
same,Potency,[2],"inconclusive: 29.8 µM [cytotoxic, single point]"
same,Potency,[6],"inconclusive: 33.5 µM [cytotoxic, single point]"
same,Potency,[12],active: 1.26 µM
same,Potency,[4],"inconclusive: 27.5 µM [inhibitor, partial curve, poor fit]"
O=C(CCCN1CCC(O)(c2ccc(Br)cc2)CC1)c1ccc(F)cc1,"activity, negative = inhibition",[1],inconclusive: -16.9% [at 35.3 µM]
same,Potency,[13],inconclusive: 33.5 µM [activator]
same,Potency,[11],"inconclusive: 10.6 µM [activator, full curve, poor fit]"
same,Potency,[8],active: 2.45 µM
same,Potency,[5],active: 0.239 µM
C#Cc1cccc(Nc2ncnc3cc(OCCOC)c(OCCOC)cc23)c1,Potency,[1],"inconclusive: 12 µM [rising, partial curve]"
same,Potency,[2],"inconclusive: 4.22 µM [cytotoxic, full curve, poor fit]"
same,Potency,[3],"inconclusive: 5.96 µM [cytotoxic, full curve]"
same,Potency,[14],"inconclusive: 3.98 µM [activator, partial curve, poor fit]"
same,Potency,[4],"inconclusive: 7.76 µM [inhibitor, full curve, poor fit]"
Cc1ccc(Nc2nccc(N(C)c3ccc4c(C)n(C)nc4c3)n2)cc1S(N)(=O)=O,"activity, negative = inhibition",[1],inconclusive: -0.417% [at 35.3 µM]
same,Potency,[2],"inconclusive: 23.7 µM [cytotoxic, partial curve]"
same,Potency,[3],"inconclusive: 23.7 µM [cytotoxic, partial curve]"
same,Potency,[11],active: 2.66 µM
same,Potency,[10],inactive
